In paper PMC4336329 (PLoS ONE, 2015):
Among all 310,000 compounds or so, about 2,200 (0.71%) showed an effect of 50% or more. The effect is printed as a negative number. This is one part of the list.

molecular target: human ether-à-go-go-related gene (hERG) potassium channel (human, UniProt Q12809); assay: primary screen, population patch clamp on CHO cells stably expressing hERG
Sequence (Q12809 whole entry, looked up): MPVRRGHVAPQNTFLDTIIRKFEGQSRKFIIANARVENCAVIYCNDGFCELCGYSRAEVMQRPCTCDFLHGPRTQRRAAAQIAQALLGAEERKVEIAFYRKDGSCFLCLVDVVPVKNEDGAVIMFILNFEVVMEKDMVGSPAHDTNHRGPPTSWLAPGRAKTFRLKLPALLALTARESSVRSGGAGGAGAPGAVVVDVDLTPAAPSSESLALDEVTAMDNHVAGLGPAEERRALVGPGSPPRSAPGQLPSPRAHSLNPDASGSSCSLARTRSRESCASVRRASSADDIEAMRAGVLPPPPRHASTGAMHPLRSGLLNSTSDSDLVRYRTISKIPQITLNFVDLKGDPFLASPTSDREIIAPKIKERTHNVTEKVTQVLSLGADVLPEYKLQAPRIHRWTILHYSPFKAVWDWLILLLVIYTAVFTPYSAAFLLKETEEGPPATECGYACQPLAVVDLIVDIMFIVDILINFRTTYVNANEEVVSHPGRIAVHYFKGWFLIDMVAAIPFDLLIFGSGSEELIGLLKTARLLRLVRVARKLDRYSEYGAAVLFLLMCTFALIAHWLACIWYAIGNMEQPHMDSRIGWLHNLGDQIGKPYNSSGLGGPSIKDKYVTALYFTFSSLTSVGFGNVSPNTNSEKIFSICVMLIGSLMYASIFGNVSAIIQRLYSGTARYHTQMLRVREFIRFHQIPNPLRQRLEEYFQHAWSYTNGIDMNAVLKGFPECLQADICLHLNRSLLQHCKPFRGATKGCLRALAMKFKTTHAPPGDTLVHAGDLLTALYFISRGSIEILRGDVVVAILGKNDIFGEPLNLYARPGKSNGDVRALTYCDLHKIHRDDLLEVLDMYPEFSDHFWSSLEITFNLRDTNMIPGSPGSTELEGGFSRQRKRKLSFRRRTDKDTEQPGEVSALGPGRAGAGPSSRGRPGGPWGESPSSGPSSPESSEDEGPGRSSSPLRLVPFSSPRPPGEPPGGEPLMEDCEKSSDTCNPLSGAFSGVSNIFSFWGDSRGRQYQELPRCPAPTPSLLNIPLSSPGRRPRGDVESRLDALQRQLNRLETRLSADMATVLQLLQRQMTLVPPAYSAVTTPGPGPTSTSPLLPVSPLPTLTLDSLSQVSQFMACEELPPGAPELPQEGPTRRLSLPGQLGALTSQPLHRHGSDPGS

In order of falling “hERG current change (%, negative = inhibition) at 1uM” value:
1. CNc1nc(Sc2cccc(C(F)(F)F)c2)cc(C(F)(F)F)n1  22.1%
2. CNCC1(c2ccccc2)CCCC1.Cl  17.8%
3. COc1ccc(S(=O)(=O)N=Nc2c(O)[nH]c3ccccc23)cc1  17.7%
4. CN1/C(=C\C=C(/C#N)C(=O)Nc2ccc(Cl)cc2)C(C)(C)c2ccccc21  17.6%
5. CC(C)(C)c1cc(C(=O)NN)n(Cc2ccc(Cl)cc2Cl)n1  16.3%
6. COc1ccc2[nH]c(=O)c(CN(C(=O)c3cccnc3)c3ccccc3)cc2c1  16.1%
7. CC(C)CC(=O)NC(=S)Nc1nc(-c2ccccc2)cs1  15.9%
8. O=c1c(O)cccc2cc(O)c(O)c(O)c12  15.8%
9. Cc1ccc(C(=O)NNC(=O)Cc2csc(-c3csc(C)n3)n2)cc1  15.8%
10. O=C(Nc1ccc(Nc2ccccc2)cc1)c1ccccc1F  15.1%
11. O=C(O)/C=C/c1cnc2ccccc2n1  15%
12. CC(C(=O)Nc1ccc2c(c1)OCO2)N1CCN(C)CC1.O=C(O)C(=O)O (stereo not shown)  14.8%
13. Cc1ccccc1OCCC(=O)OCC(=O)NC(=O)c1ccccc1  14.8%
14. Cc1cccc2c(CCNC(=O)c3ccc([N+](=O)[O-])cc3)c[nH]c12  14.7%
15. O=C(O)c1nccnc1C(=O)Nc1ccc(Cl)cn1  14.6%
16. C=CCn1c(-c2ccncc2)n[nH]c1=S  14.5%
17. Cc1c(Cc2ccccc2)c(=O)oc2c(C)c(OCc3nn[nH]n3)ccc12  14.2%
18. CC(C)Cc1nnc(NC(=O)C23CC4CC(CC(C4)C2)C3)s1  13.8%
19. CCn1cc(C(=O)N2CCOCC2)c(=O)c2cc(S(=O)(=O)N(C)C3CCCCC3)ccc21  13.6%
20. Nc1ccc(S(=O)(=O)N2CCOCCOCCOCCOCCOCC2)cc1  13.3%
21. COC(=O)c1cccc(-n2[nH]nnc2=S)c1  12.9%
22. COc1ccc(O)c(/C=N/N=C/c2cccc([N+](=O)[O-])c2)c1  12.8%
23. COc1ccc2nc(NC(=O)CSc3nnnn3C)sc2c1  12.5%
24. COc1ccc(NC(=S)NCCCCCC(=O)C[N+](=O)[O-])cc1  12.5%
25. CC(=O)N1CCN(C(=S)Nc2cc(S(=O)(=O)N3CCOCC3)ccc2Cl)CC1  12.4%
26. COc1cc(NC(=O)c2ccc(Cl)cc2Cl)ccc1NC(=O)c1cccs1  12.3%
27. Cc1ccc(S(=O)(=O)CCC(=O)NC2CCCC2)cc1  12.1%
28. Cc1cc(-c2ccccc2)n(-c2ccccc2)n1  12.1%
29. O=C(NCCNC(=O)c1ccccc1F)c1ccccn1  11.9%
30. Oc1cccc2nc3ccccc3nc12  11.9%
31. CC(=O)NC(CC(=O)Nc1ccc(S(=O)(=O)N2CCCC2)cc1)c1ccccc1 (stereo not shown)  11.8%
32. CS(=O)(=O)c1ccc2nc(NC(=O)c3ccc(N4C(=O)CCC4=O)cc3)sc2c1  11.8%
33. CN(C)N1C(N)=C(C#N)C(c2ccc3c(c2)OCO3)C2=C1CC(C)(C)CC2=O (stereo not shown)  11.8%
34. O=c1c2sccc2n(Cc2cc(=O)n3ccccc3n2)c(=O)n1-c1ccccc1  11.6%
35. CCC1CCCCN1C(=O)CCS(=O)(=O)c1ccccc1 (stereo not shown)  11.2%
36. COC(=O)Cn1c(C)c(C#N)c2ccccc21  10.4%
37. COC(=O)C(Cc1c[nH]c2ccccc12)N1CCS(=O)(=O)CC1 (stereo not shown)  10.3%
38. CCCNC(=O)CCCCn1c(=S)[nH]c2c([nH]c3ccc(OC)cc32)c1=O  10.3%
39. CC(Nc1nc2ncn(Cc3ccccc3)c2c(=O)[nH]1)C(=O)O (stereo not shown)  10.1%
40. CCOC(=O)C(=CNc1ccc(C(F)(F)F)cc1Cl)C(=O)OCC  9.93%
41. CC1Cc2ccccc2N1S(=O)(=O)c1ccc(Cl)nc1 (stereo not shown)  9.77%
42. Cc1ccccc1Nc1nc(N)nc(COC(=O)c2cccc(S(=O)(=O)NCc3ccccc3)c2)n1  9.64%
43. O=C(COc1ccc(C(=O)Nc2ccc(Cl)cc2)cc1)NCc1ccccc1  9.6%
44. COc1ccc([C@@H]2[C@@H]3C(=O)N(C(C)(C)C)C(=O)[C@@H]3[C@]3(Cc4ccccc4)C(=O)N(c4ccc(Br)cc4)C(=O)N23)cc1  9.56%
45. Cc1cccc(CS(=O)(=O)c2ncc(Cl)c(C(=O)Nc3c(C)cccc3C)n2)c1  9.51%
46. COc1ccc(NC2CCCN(C(=O)c3csc(C(C)C)n3)C2)cc1OC (stereo not shown)  9.41%
47. O=C(O[C@@H]1OC2COC(=O)c3cc(O)c(O)c(O)c3-c3c(cc(O)c(O)c3O)C(=O)O[C@@H]([C@H]1O)[C@@H]2O)c1cc(O)c(O)c(O)c1  9.41%
48. CN(C)S(=O)(=O)c1cc([N+](=O)[O-])ccc1N1CCCCCC1  9.36%
49. COc1ccc(CNC(=O)C2CCCN(C(=O)Nc3ccccc3OC)C2)cc1 (stereo not shown)  9.25%
50. CCCN1C(=O)SC(CC(=O)Nc2ccccc2)C1=O (stereo not shown)  8.6%
51. Nn1c(SCc2nc3ccccn3c2Br)nnc1-c1cccnc1  8.47%
52. CN1C(=O)c2ccccc2N(C)C1c1ccc2c(c1)OCO2 (stereo not shown)  8.33%
53. Cc1cc(Cl)ccc1NS(=O)(=O)c1c(C)[nH]c(=O)[nH]c1=O  8.25%
54. Cc1cc(=O)oc2cc(OCCCC[n+]3ccccc3)ccc12.[Br-]  7.97%
55. CN(C)S(=O)(=O)c1ccc2nnn(O)c2c1  7.89%
56. O=C(N/N=C\c1cccs1)c1ccccc1-n1cccc1  7.51%
57. CC1CCCN(c2nc3c(c(=O)[nH]c(=O)n3C)n2Cc2ccccc2Cl)C1 (stereo not shown)  7.46%
58. Cc1ccc(C(=O)CC(=O)COc2ccc(Cl)cc2)cc1  7.1%
59. CN(C)C(=O)c1cccn1-c1ncc(C(F)(F)F)cc1Cl  7%
60. O=C(CSc1nc2ccccc2nc1N1CCOCC1)N1CCN(c2ccccc2)CC1  6.99%
61. COc1cc(=O)n(C)c2c(OCC3OC(C)(C)OC3(C)C)cccc12 (stereo not shown)  6.93%
62. CC(C)Oc1ccc(Br)cc1/C=N\NC(N)=S  6.85%
63. CC(C)(C)NC1=CC(=O)OC12CCCCC2  6.58%
64. OC(COc1ccc(OCC(O)CN2CCN(Cc3ccccc3)CC2)cc1)CN1CCN(Cc2ccccc2)CC1 (stereo not shown)  6.14%
65. CSC(=NS(=O)(=O)c1ccc(C)cc1)SC  5.47%
66. COc1ccccc1-c1cc(C(=O)N2CCN(c3ccccc3)CC2)no1  5.04%
67. CCN(CC(=O)Nc1ccccc1C(F)(F)F)C(=O)c1ccccc1SCC(=O)N1CCCC1  4.48%
68. N#C/C(=C\c1cc(O)c(O)c(O)c1)C(N)=O  4.39%
69. O=C(O)CCSc1nnc(CNc2ccc(Cl)cc2)n1Cc1ccccc1  4.32%
70. CN1CCN(C(=O)c2ccccc2NC(=O)COc2ccccc2Cl)CC1  4.18%
71. Cn1c(=O)c2cc(S(=O)(=O)NC(C(=O)Nc3cccnc3)c3ccccc3)ccc2n(C)c1=O (stereo not shown)  3.7%
72. O=C(Cc1cn2ccsc2n1)Nc1nc2c(s1)CN(Cc1ccccc1)CC2  3.55%
73. COCCCNC(=O)c1ccccc1Sc1ccc(NC(C)=O)nc1  2.68%
74. CN(C)C(=O)c1cn(-c2ccccc2)nc1-c1cccc([N+](=O)[O-])c1  2.16%
75. COc1ccccc1N(C)C(=O)c1cc(S(=O)(=O)N2CCc3ccccc32)cn1C  1.85%
76. Cc1ccc(-n2ncc3c2CCCC3NC(=O)CCc2cnn(C)c2)cc1C (stereo not shown)  1.42%
77. Cc1ccc(-c2noc(CN(C(=O)Cc3ccccc3)C(C)C)n2)cc1  1.11%
78. CCOC(=O)C1=C(C)NC(C)=C(C(=O)OCC)C1C(=O)OCC(=O)N1c2ccccc2CC1C (stereo not shown)  0.873%
79. O=C(CSc1ccccc1)NCC1(N2CCOCC2)CCCCC1  0.32%
80. c1csc(C2Nc3ccccc3-c3nc4ccccc4n32)c1 (stereo not shown)  0.297%
81. COc1ccc(CN(C(=O)CN2C(=O)C(C)Oc3ccccc32)C2CCCC2)c(OC)c1 (stereo not shown)  -0.0656%
82. COc1ccc(NC(=O)N(Cc2ccc(C)cc2)Cc2cccnc2)c(OC)c1  -0.158%
83. Cc1ccc(NC(=O)CN(C)S(=O)(=O)c2cccc3cccnc23)cc1  -0.451%
84. Br.C=CCn1c(=N)n(CC(=O)c2ccccc2)c2ccccc21  -0.707%
85. O=C(CCNC(=O)c1ccc(Br)cc1)OCc1ccccc1Cl  -3.72%
86. CCCCCCCCN1[C@@H](CC(=O)OCC)c2cc(C(F)(F)F)ccc2S1(=O)=O  -10.6%
87. Cc1cc(=O)n2c3ccccc3n(CC(O)CN3CCCC3)c2c1C#N (stereo not shown)  -11.5%
88. CC(C)N1CCC2(CC1)N=C(c1ccc3c(c1)OCO3)CC(c1cc(Cl)ccc1O)N2 (stereo not shown)  -36.6%
